Data: paper PMC4336329 (PLoS ONE, 2015)
Hit rate of the full screen: of about 310,000 compounds, about 2,200 (0.71%) showed an effect of 50% or more. The effect is printed as a negative number. The list shows a part of the results.

target: human ether-à-go-go-related gene (hERG) potassium channel (human, UniProt Q12809); test: primary screen, population patch clamp on CHO cells stably expressing hERG
Sequence (Q12809 whole entry, looked up): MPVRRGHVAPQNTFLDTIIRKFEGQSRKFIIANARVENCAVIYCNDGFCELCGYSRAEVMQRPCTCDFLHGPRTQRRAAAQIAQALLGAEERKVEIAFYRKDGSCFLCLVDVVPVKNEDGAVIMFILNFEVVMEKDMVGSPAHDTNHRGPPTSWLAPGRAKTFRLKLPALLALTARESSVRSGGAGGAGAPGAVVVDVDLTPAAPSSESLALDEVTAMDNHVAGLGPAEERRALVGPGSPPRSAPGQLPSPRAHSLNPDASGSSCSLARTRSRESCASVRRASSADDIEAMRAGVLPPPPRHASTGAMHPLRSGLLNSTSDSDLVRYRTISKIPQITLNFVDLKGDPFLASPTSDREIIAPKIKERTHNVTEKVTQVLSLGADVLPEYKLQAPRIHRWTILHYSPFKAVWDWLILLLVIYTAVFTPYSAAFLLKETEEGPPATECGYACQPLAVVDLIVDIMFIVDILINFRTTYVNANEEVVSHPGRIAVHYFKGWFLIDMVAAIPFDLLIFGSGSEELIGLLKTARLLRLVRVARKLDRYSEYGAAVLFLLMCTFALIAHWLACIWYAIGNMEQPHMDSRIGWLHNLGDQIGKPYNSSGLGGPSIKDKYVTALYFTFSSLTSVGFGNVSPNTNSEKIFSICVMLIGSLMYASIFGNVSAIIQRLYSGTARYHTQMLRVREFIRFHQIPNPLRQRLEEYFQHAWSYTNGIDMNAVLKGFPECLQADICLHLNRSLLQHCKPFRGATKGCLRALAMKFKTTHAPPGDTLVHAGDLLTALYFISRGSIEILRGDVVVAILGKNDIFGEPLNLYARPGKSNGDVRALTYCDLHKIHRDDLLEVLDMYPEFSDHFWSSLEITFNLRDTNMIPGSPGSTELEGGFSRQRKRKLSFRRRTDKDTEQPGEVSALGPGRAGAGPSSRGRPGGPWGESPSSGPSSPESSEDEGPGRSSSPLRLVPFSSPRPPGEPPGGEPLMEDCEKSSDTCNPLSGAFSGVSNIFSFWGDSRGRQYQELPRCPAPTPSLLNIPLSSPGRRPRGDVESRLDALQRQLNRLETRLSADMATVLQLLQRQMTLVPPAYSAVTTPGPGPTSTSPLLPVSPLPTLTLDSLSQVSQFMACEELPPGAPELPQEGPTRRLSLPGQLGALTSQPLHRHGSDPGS

Compound | hERG current change (%, negative = inhibition) at 1uM [%]
S=C(NCCC(c1ccccc1)c1ccccc1)Nc1ccccc1Cl | 11.7
CN1CCN(c2ccc([N+](=O)[O-])c(N)c2)CC1 | -12.3
O=C(NCCCN1CCOCC1)c1cccc(NC(=O)c2ccccc2)c1 | 11.4
O=C(COc1ccc(S(=O)(=O)N2CCOCC2)cc1)NCc1ccccc1 | 15
COc1ccc(-n2nnnc2SCC(=O)N2CCCc3ccccc32)cc1OC | 15.1
NC(=O)c1cc(C(N)=O)nc(Cl)n1 | 15.1
CCN(CCn1cccn1)C(=O)CC1C(=O)NCCN1Cc1cc(OC)cc(OC)c1 (centres unmarked) | 6.22
Cc1ccc(Nc2c(-c3ccc(C)o3)nc3ncccn23)cc1 | -7.38
COC(=O)c1cc(S(=O)(=O)N2CCCCC2)c[nH]1 | 16.1
CC(=O)c1ccc(S(=O)(=O)N2CCN(C(=O)c3ccc(-n4nc(C)c(Cl)c4C)cc3)CC2)cc1 | -9.13
COc1ccc(C2=NCC(=S)Nc3ccc(Cl)cc32)cc1OC | -0.633
CC(=O)C1=C(O)C=C(c2ccco2)CC1c1ccco1 (centres unmarked) | 5.15
O=c1nc(SCc2ccccc2Cl)nc(-c2ccc(Cl)cc2)[nH]1 | 8.5
CCNc1nc(NCC)nc(Nn2cnnc2)n1 | 3.61
Cc1ccc(N/C=C(\C#N)S(=O)(=O)c2ccccc2)cc1 | 12.6
CS(=O)(=O)c1ccccc1-c1nnc(NC(=O)C2=COCCO2)o1 | 5.41
O=C(C1CCC(CNc2c(N3CCCCC3)c(=O)c2=O)CC1)N1CCCCC1 (centres unmarked) | 9.59
COc1ccccc1NS(=O)(=O)c1cc(NC(=O)CCC(=O)c2cccs2)ccc1Cl | -0.761
O=C(CN1CCC(Cc2ccccc2)CC1)NCCc1ccc(F)cc1 | -0.358
NC(=O)NS(=O)(=O)Oc1ccccc1 | 15.9
Cl.NS(=O)(=O)c1ccc(CCNCc2cccs2)cc1 | 4.5
CCCN(CCC)CCCNC(=O)Cn1cnc2sc(C)c(S(=O)(=O)N3CCOCC3)c2c1=O | 14

Compound | hERG current change (%, negative = inhibition) at 1uM [%]
COc1ccc(N2C(=NC(=O)C3CCCCC3)SC3CS(=O)(=O)CC32)c(OC)c1 (centres unmarked) | -1.01
Cn1c(=O)oc2cc(S(=O)(=O)NCCN3CCc4ccccc4C3)ccc21 | 4.52
COc1cccc(C(=O)C2CN(c3ccccc3)CC2c2ccc(Cl)cc2)c1 (centres unmarked) | 10.7
O=C(CN1CCN(S(=O)(=O)c2ccc(F)c(Cl)c2)CC1)N1CCNC1=O | 10
CN1CCN(S(=O)(=O)c2cccc(C(=O)Nc3ccccc3N3CCCC3)c2)CC1 | -0.886
CCC(C)(C)NC(=O)CSc1nc(Cc2ccccc2)nc2ccccc12 | 11.3
O=C(C1CCCN(S(=O)(=O)c2ccc(F)cc2)C1)N1CCCCC1 (centres unmarked) | 11
Cc1nc(C)n(C(C)CNC(=O)c2ccco2)n1 (centres unmarked) | 11.9
Cc1ccc(/C=C(/C#N)C(=O)NC(=O)Oc2ccccc2)cc1 | 12.8
CN(C(=O)CN1C(=O)S/C(=C\c2ccccc2)C1=O)C1CCS(=O)(=O)C1 (centres unmarked) | 14.7
COc1ccc(-c2cc(C(=O)OCC(=O)Nc3cc(C)on3)c3ccccc3n2)cc1OC | 5.22
O=C(Nc1scc(-c2ccccc2)c1C(=O)O)c1ccco1 | 12.6
O=C(NCCC1=CCCCC1)C(=O)NCc1ccccc1Cl | -7.72
Cc1ccccc1-n1ccnc1SCC(=O)NCC1CCCO1 (centres unmarked) | 13.9
Cc1ccc(-c2cc3ccccc3nc2N)cc1 | 11.1
CSC(=Nc1ccccc1)c1c(O)n(C)c(=O)n(C)c1=O | 7.67
Cc1ccc(OCC(=O)Nc2ccc(N3CCN(C(=O)c4ccco4)CC3)cc2)cc1C | -0.75
COc1ccccc1NC(=O)C(C)OC(=O)CN1C(=O)C2CC=CCC2C1=O (centres unmarked) | -21.8
O=C(OCC(=O)N1CCN(C(=O)c2ccco2)CC1)c1cccc(O)c1 | 6.74
COc1ccc(C2=NS(=O)(=O)N(C)C(C(=O)Nc3ccc4c(c3)OCO4)=C2)cc1 | 7.43
COc1ccc(C2(c3ccc(OC(C)=O)cc3OC(C)=O)CC(c3ccccc3)NC(=S)N2)cc1 (centres unmarked) | -9.81
N#Cc1cccc(NC(=O)Cn2cnc(S(=O)(=O)N3CCc4ccccc43)c2)c1 | 5.83
